# Results taken from the supplement of paper PMC12217912.
# The list shows a part of the results. Sequences were assembled here from the parent chain. Inactive controls read about 0.05.
# B1: TEV protease; numbered along this chain (parent)
# chain: MGESLFKGPRDYNPISSSICHLTNESDGHTTSLYGIGFGPFIITNKHLFRRNNGTLVVQSLHGVFKVKDTTTLQQHLVDGRDMIIIRMPKDFPPFPQKLKFREPQREERICLVTTNFQTKSMSSMVSDTSCTFPSGDGIFWKHWIQTKDGQCGSPLVSTRDGFIVGIHSASNFTNTNNYFTSVPKNFMELLTNQEAQQWVSGWRLNADSVLWGGHKVFMVKPEEPFQPVKEATQL
# Variants of: B1
# Assay: raw area under fraction-flipped curve 0-4 h after induction (AUC4h, not background-subtracted), DNA-recorder readout of cleavage of the substrate (dimensionless); higher = more cleavage of the substrate by the protease variant
# Conditions: temperature: 34 °C; time window: 0-4 h after rhamnose induction
# 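Further: Bxb1 expression induced with 0.2% (w/v) L-rhamnose at OD600 near 0.5, cultures sampled hourly, flipped fraction per protease–substrate barcode pair counted by paired-end Illumina sequencing.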
Variant,area with substrate ENDYFQS,area with substrate ENFYFQS,area with substrate ENNYFQS,area with substrate ENQYFQS,area with substrate ENRYFQS,area with substrate ENSYFQS,area with substrate ENTYFQS,area with substrate ENVYFQS,area with substrate ENWYFQS,area with substrate ENYYFQS
MGESLFKGPRDYNPISSSICHLTNESDGHTTSLYGIGFGPFIITNKHLFRRNNGTLVVQSLHGVFKVKDTTTLQQHLVDGRDMIIIRMPKDFPPFPQKLKFREPQREERICLVTTNFQTKSMSSMVSDTSCTFPSGDGIFWKHWIQTKDGQCGSPLVSTRDGFIVGIHSASNFTNTNNYFTSVPKNFMEPLTNQEAQQWVSGWRLNADSVLWGGHKVFMVKPEEPFQPVKEATQL [L190P],0.0648,0.0624,0.0438,0.0504,0.0467,0.0548,0.0453,0.0748,0.0565,0.065
MGESLFKGPRDYNPISSSICHLTNESDGHTTSLYGIGFGPFIITNKHLFRRNNGTLVVQSLHGVFKVKDTTTLQQHLVDGRDMIIIRMPKDFPPFPQKLKFREPQREERICLVTTNFQTKSMSSMVSDTSCTFPSGDGIFWKHWIQTKDGQCGSPLVSTRDGFIVGIHSASNFTNTNNYFTSVPKNFMEFLTNQEAQQWVSGWRLNADSVLWGGHKVFMVKPEEPFQPVKEATQL [L190F],0.0519,–,–,0.0739,–,0.0513,0.0486,–,–,–
MGESLFKGPRDYNPISSSICHLTNESDGHTTSLYGIGFGPFIITNKHLFRRNNGTLVVQSLHGVFKVKDTTTLQQHLVDGRDMIIIRMPKDFPPFPQKLKFREPQREERICLVTTNFQTKSMSSMVSDTSCTFPSGDGIFWKHWIQTKDGQCGSPLVSTRDGFIVGIHSASNFTNTNNYFTSVPKNFMELLTNQEAQQWVSGWRLNADSVLWGGHKVFMVKPEEPFQPVKEAPQL [T233P],0.0579,–,–,0.0657,–,0.0686,–,–,0.0575,–
MGESLFKGPRDYNPISSSICHLTNESDGHTTSLYGIGFGPFIITNKHLFRRNNGTLVVQSLHGVFKVKDTTTLQQHLVDGRDMIIIRMPKDFPPFPQKLKFREPQREERICLVTTNFQTKSMSSMVSDTSCTFPSGDGIFWKHWIQTKDGQCGSPLVSTRDGFIVGIHSASNFTNTNNYFTSVPKNFMELLTNQHAQQWVSGWRLNADSVLWGGHKVFMVKPEEPFQPVKEATQL [E195H],0.0348,0.0661,–,0.0632,–,–,0.0522,0.0827,–,–
MGESLFKGPRDYNPISSSICHLTNESDGHTTSLYGIGFGPFIITNKHLFRRNNGTLVVQSLHGVFKVKDTTTLQQHLVDGRDMIIIRMPKDFPPFPQKLKFREPQREERICLVTTNFQTKSMSSMVSDTSCTFPSGDGIFWKHWIQTKDGQCGSPLVSTRDGFIVGIHSASNFTNTNNYFESVPKNFMELLTNQEAQQWVSGWRLNADSVLWGGHKVFMVKPEEPFQPVKEATQL [T181E],0.0586,–,0.0636,–,–,0.069,–,0.0623,0.0613,–
MGESLFKGPRDYNPISSSICHLTNESDGHTTSLYGIGFGPFIITNKHLFRRNNGTLVVQSLHGVFKVKDTTTLQQHLVDGRDMIIIRMPKDFPPFPQKLKFREPQREERICLVTTNFQTKSMSSMVSDTSCTFPSGDGIFWKHWIQTKDGQCGSPLVSTRDGFIVGIHSASNFTNTNNYFISVPKNFMELLTNQEAQQWVSGWRLNADSVLWGGHKVFMVKPEEPFQPVKEATQL [T181I],0.0423,–,–,0.0373,–,0.0788,–,–,–,–
MGESLFKGPRDYNPISSSICHLTNESDGHTTSLYGIGFGPFIITNKHLFRRNNGTLVVQSLHGVFKVKDTTTLQQHLVDGRDMIIIRMPKDFPPFPQKLKFREPQREERICLVTTNFQTKSMSSMVSDTSCTFPSGDGIFWKHWIQTKDGQCGSPLVSTRDGFIVGIHSASNFTNTNNYFTSVPKNFMELQTNQEAQQWVSGWRLNADSVLWGGHKVFMVKPEEPFQPVKEATQL [L191Q],0.0678,–,0.0491,–,–,–,0.0482,0.0348,–,0.0494
MGESLFKGPRDYNPISSSICHLTNESDGHTTSLYGIGFGPFIITNKHLFRRNNGTLVVQSLHGVFKVKDTTTLQQHLVDGRDMIIIRMPKDFPPFPQKLKFREPQREERICLVTTNFQTKSMSSMVSDTSCTFPSGDGIFWKHWIQTKDGQCGSPLVSTRDGFIVGIHSASNFTNTNNYFTSVPLNFMELLTNQEAQQWVSGWRLNADSVLWGGHKVFMVKPEEPFQPVKEATQL [K185L],0.0453,–,–,0.0442,–,0.0651,–,0.0627,–,–
MGESLFKGPRDYNPISSSICHLTNESDGHTTSLYGIGFGPFIITNKHLFRRNNGTLVVQSLHGVFKVKDTTTLQQHLVDGRDMIIIRMPKDFPPFPQKLKFREPQREERICLVTTNFQTKSMSSMVSDTSCTFPSGDGIFWKHWIQTKDGQCGSPLVSTRDGFIVGIHSASNFTNTNNYFTSVPKNFMELLTNQEAQQWVSGWRLPADSVLWGGHKVFMVKPEEPFQPVKEATQL [N206P],0.04,–,0.0672,0.0661,0.0438,–,–,0.0742,–,–
MGESLFKGPRDYNPISSSICHLTNESDGHTTSLYGIGFGPFIITNKHLFRRNNGTLEVQSLHGVFKVKDTTTLQQHLVDGRDMIIIRMPKDFPPFPQKLKFREPQREERICLVTTNFQTKSMSSMVSDTSCTFPSGDGIFWKHWIQTKDGQCGSPLVSTRDGFIVGIHSASNFTNTNNYFTSVPKNFMELLTNQEAQQWVSGWRLNADSVLWGGHKVFMVKPEEPFQPVKEATQL [V57E],–,–,–,0.0572,0.0504,0.0607,0.058,–,0.104,0.0527

# Same assay, conditions: temperature: 34 °C; time window: 0-4 h after rhamnose induction
Variant,area with substrate ENEYFQS,area with substrate ENGYFQS,area with substrate ENHYFQS,area with substrate ENPYFQS,area with substrate ENMYFQS,area with substrate ENKYFQS,area with substrate ENIYFQS
MGESLFKGPRDYNPISSSICHLTNESDGHTTSLYGIGFGPFIITNKHLFRRNNGTLVVQSLHGVFKVKDTTTLQQHLVDGRDMIIIRMPKDFPPFPQKLKFREPQREERICLVTTNFQTKSMSSMVSDTSCTFPSGDGIFWKHWIQTKDGQCGSPLVSTRDGFIVGIHSASNFTNTNNYFTSVPKNFMEFLTNQEAQQWVSGWRLNADSVLWGGHKVFMVKPEEPFQPVKEATQL [L190F],0.0591,0.0486,–,–,–,–,–
MGESLFKGPRDYNPISSSICHLTNESDGHTTSLYGIGFGPFIITNKHLFRRNNGTLVVQSLHGVFKVKDTTTLQQHLVDGRDMIIIRMPKDFPPFPQKLKFREPQREERICLVTTNFQTKSMSSMVSDTSCTFPSGDGIFWKHWIQTKDGQCGSPLVSTRDGFIVGIHSASNFTNTNNYFTSVPKNFMELLTNQEAQQWVSGWRLNADSVLWGGHKVFMVKPEEPFQPVKEAPQL [T233P],0.0565,–,0.0758,0.0421,–,–,–
MGESLFKGPRDYNPISSSICHLTNESDGHTTSLYGIGFGPFIITNKHLFRRNNGTLVVQSLHGVFKVKDTTTLQQHLVDGRDMIIIRMPKDFPPFPQKLKFREPQREERICLVTTNFQTKSMSSMVSDTSCTFPSGDGIFWKHWIQTKDGQCGSPLVSTRDGFIVGIHSASNFTNTNNYFTSVPKNFMELLTNQHAQQWVSGWRLNADSVLWGGHKVFMVKPEEPFQPVKEATQL [E195H],0.0814,–,0.0448,–,0.0802,–,–
MGESLFKGPRDYNPISSSICHLTNESDGHTTSLYGIGFGPFIITNKHLFRRNNGTLVVQSLHGVFKVKDTTTLQQHLVDGRDMIIIRMPKDFPPFPQKLKFREPQREERICLVTTNFQTKSMSSMVSDTSCTFPSGDGIFWKHWIQTKDGQCGSPLVSTRDGFIVGIHSASNFTNTNNYFESVPKNFMELLTNQEAQQWVSGWRLNADSVLWGGHKVFMVKPEEPFQPVKEATQL [T181E],–,–,–,0.0518,–,–,–
MGESLFKGPRDYNPISSSICHLTNESDGHTTSLYGIGFGPFIITNKHLFRRNNGTLVVQSLHGVFKVKDTTTLQQHLVDGRDMIIIRMPKDFPPFPQKLKFREPQREERICLVTTNFQTKSMSSMVSDTSCTFPSGDGIFWKHWIQTKDGQCGSPLVSTRDGFIVGIHSASNFTNTNNYFISVPKNFMELLTNQEAQQWVSGWRLNADSVLWGGHKVFMVKPEEPFQPVKEATQL [T181I],0.079,–,–,–,–,–,–
MGESLFKGPRDYNPISSSICHLTNESDGHTTSLYGIGFGPFIITNKHLFRRNNGTLVVQSLHGVFKVKDTTTLQQHLVDGRDMIIIRMPKDFPPFPQKLKFREPQREERICLVTTNFQTKSMSSMVSDTSCTFPSGDGIFWKHWIQTKDGQCGSPLVSTRDGFIVGIHSASNFTNTNNYFTSVPKNFMELQTNQEAQQWVSGWRLNADSVLWGGHKVFMVKPEEPFQPVKEATQL [L191Q],–,–,0.0706,–,0.0746,0.054,–
MGESLFKGPRDYNPISSSICHLTNESDGHTTSLYGIGFGPFIITNKHLFRRNNGTLVVQSLHGVFKVKDTTTLQQHLVDGRDMIIIRMPKDFPPFPQKLKFREPQREERICLVTTNFQTKSMSSMVSDTSCTFPSGDGIFWKHWIQTKDGQCGSPLVSTRDGFIVGIHSASNFTNTNNYFTSVPLNFMELLTNQEAQQWVSGWRLNADSVLWGGHKVFMVKPEEPFQPVKEATQL [K185L],–,0.0579,0.0597,–,–,0.064,0.112
MGESLFKGPRDYNPISSSICHLTNESDGHTTSLYGIGFGPFIITNKHLFRRNNGTLVVQSLHGVFKVKDTTTLQQHLVDGRDMIIIRMPKDFPPFPQKLKFREPQREERICLVTTNFQTKSMSSMVSDTSCTFPSGDGIFWKHWIQTKDGQCGSPLVSTRDGFIVGIHSASNFTNTNNYFTSVPKNFMELLTNQEAQQWVSGWRLPADSVLWGGHKVFMVKPEEPFQPVKEATQL [N206P],0.0354,–,–,–,–,0.0458,–
MGESLFKGPRDYNPISSSICHLTNESDGHTTSLYGIGFGPFIITNKHLFRRNNGTLEVQSLHGVFKVKDTTTLQQHLVDGRDMIIIRMPKDFPPFPQKLKFREPQREERICLVTTNFQTKSMSSMVSDTSCTFPSGDGIFWKHWIQTKDGQCGSPLVSTRDGFIVGIHSASNFTNTNNYFTSVPKNFMELLTNQEAQQWVSGWRLNADSVLWGGHKVFMVKPEEPFQPVKEATQL [V57E],0.066,–,0.0681,–,–,–,–
